System: A549 cells
Conditions: A549, 72 h; IC50 butyrate, 0.25-1.5×IC50 seliciclib, alone or together; FIG. 1

| SMILES | sub-G1 cells (<2n DNA, dead or undergoing apoptosis) |
| --- | --- |
| CCCC(=O)[O-].[Na+] [Butyrate, sodium butyrate] | small increase |
| CC[C@H](CO)Nc1nc(NCc2ccccc2)c2ncn(C(C)C)c2n1 [seliciclib, 2-(1-R-hydroxymethylpropylamino)-6-benzylamino-9-isopropylpurine] | dose-dependent increase |

Reference: US20090306098A1 (Cyclacel Limited, priority 2005, published 2009)
